According to the supplement of paper PMC10126150:
Values marked as one replicate rest on one cluster of the flow cell; about a third of the high ones do not repeat.

System: ATP
Assay: switch fluorescence ratio, 500 uM ATP over buffer (Cy3 cluster intensity, sum of 5 cycles each) (fold (ratio)); higher = stronger signal-on switching upon ATP binding; sequences stand for … in TCGTCGGCAGCGTCAGATGTGTATAAGAGACAGTTTTTTTTTTTTTTTTTTTTTTTTT…TC
Conditions: aptamer strand: ATP DNA aptamer (quencher-CACCTGGGGGAGTATTGCGGAGGAAGG + anchor), 100 nM annealed; ATP concentration: 500 uM; one replicate
Procedure, shortened: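 For every switch-domain sequence, the fluorescence ratio is the mean of per-cluster values, each being summed target-cycle Cy3 intensity over summed buffer-cycle Cy3 intensity. Clusters outside 100-1000 RFU were excluded. On a modified Illumina MiSeq flow-cell, the Cy3-labelled switching-strand clusters were annealed to 100 nM quencher-labelled ATP aptamer, imaged in selection buffer and then after 15 min with 500 uM ATP at 22 °C. Five such cycles were run, with NaOH stripping and re-annealing between them.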
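Also: ATP exposure 15 min at 22 °C before imaging.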

AGGTTCTAGT showed a switch fluorescence ratio of 1.02.
GTGAATATTA gave a switch fluorescence ratio of 0.986.
Work on TCACAACCTT yielded a switch fluorescence ratio of 1.54.
Sequence GCTACTACTT has a switch fluorescence ratio of 1.05.
Work on GGCGGTTCAG yielded a switch fluorescence ratio of 0.938.
Work on TCACCTGTAT yielded a switch fluorescence ratio of 1.03.
Sequence CCACGAGGG has a switch fluorescence ratio of 1.08.
CTCTATCAG was tested, and the switch fluorescence ratio was 0.983.
AGTGAATCA showed a switch fluorescence ratio of 0.965.
Work on GGGGGAGAAG yielded a switch fluorescence ratio of 0.962.
TAAGGGTCCG showed a switch fluorescence ratio of 0.871.
For GTCTCACGGG, the switch fluorescence ratio was 1.07.
CATTAAAAAA showed a switch fluorescence ratio of 0.932.
ATGTTAGTT was tested, and the switch fluorescence ratio was 1.02.
Work on CCACTTGGGT yielded a switch fluorescence ratio of 1.03.
TACGGGTGTT showed a switch fluorescence ratio of 1.03.
With CCACCAGTCA the switch fluorescence ratio was 1.2.
With TGCGAGATCT the switch fluorescence ratio was 1.04.
In the case of TCGAATTTAT, the switch fluorescence ratio is reported as 1.01.
Work on TGTCCAATTT yielded a switch fluorescence ratio of 1.04.
In the case of AGTTTGGAGG, the switch fluorescence ratio is reported as 1.04.
CTGGATTGTA gave a switch fluorescence ratio of 1.02.
CCTTCATGCT was tested, and the switch fluorescence ratio was 1.08.
In the case of CATCAAATTG, the switch fluorescence ratio is reported as 1.01.
TTTGATCAAC showed a switch fluorescence ratio of 1.02.
Work on GATTCAGAC yielded a switch fluorescence ratio of 1.03.
AGGATAACGC gave a switch fluorescence ratio of 1.1.
GCACTGTTGA gave a switch fluorescence ratio of 0.971.
With TGTGTCCTTC the switch fluorescence ratio was 1.06.
TTTCACATCG gave a switch fluorescence ratio of 1.04.
CGTTACAGGC showed a switch fluorescence ratio of 1.07.
With GTGAGGGGG the switch fluorescence ratio was 0.996.
Work on TCACATGTA yielded a switch fluorescence ratio of 1.02.
TCAATGAGGA showed a switch fluorescence ratio of 0.999.
For GAGGGAGG, the switch fluorescence ratio was 0.99.
GACACGT was tested, and the switch fluorescence ratio was 1.01.
For AGGGTTATAT, the switch fluorescence ratio was 1.03.
TCATCGCAGT was tested, and the switch fluorescence ratio was 2.09.
ACTGCGGGCC gave a switch fluorescence ratio of 0.986.
AAGGAGTCTT gave a switch fluorescence ratio of 1.
TCAACCTGAT showed a switch fluorescence ratio of 1.08.
With GACGATCCGG the switch fluorescence ratio was 0.988.
For AACTAAGGTT, the switch fluorescence ratio was 0.994.
With ACAGCGTACG the switch fluorescence ratio was 1.02.
For TGTGCTTGGA, the switch fluorescence ratio was 0.997.
In the case of CTATGTCAGG, the switch fluorescence ratio is reported as 1.2.
For AAAGATTGGA, the switch fluorescence ratio was 0.994.
In the case of ACTTGTACGC, the switch fluorescence ratio is reported as 1.17.
ACGATGGGGC showed a switch fluorescence ratio of 1.03.
CTGTCGACCC was tested, and the switch fluorescence ratio was 1.03.
GAACAACTTT gave a switch fluorescence ratio of 1.05.
TGTGGTCTTC showed a switch fluorescence ratio of 0.994.
For TCGAATTCTG, the switch fluorescence ratio was 1.01.
TTTCCCTACC gave a switch fluorescence ratio of 1.07.
With CCCTTGGATG the switch fluorescence ratio was 1.03.
Work on GGGTTCTTTT yielded a switch fluorescence ratio of 1.03.
TTTGGAAATA was tested, and the switch fluorescence ratio was 1.04.
Work on CAGTTTAGTA yielded a switch fluorescence ratio of 0.946.
Work on GCCAGAGCAT yielded a switch fluorescence ratio of 1.07.
Work on AGGTGCAGGT yielded a switch fluorescence ratio of 1.06.
Work on TCTGGGGGCA yielded a switch fluorescence ratio of 1.02.
In the case of TCAACCCCCG, the switch fluorescence ratio is reported as 1.29.
AGAGTACAGC showed a switch fluorescence ratio of 1.13.
For TGTTTGTCAC, the switch fluorescence ratio was 0.965.
ATACATGCA showed a switch fluorescence ratio of 0.994.
In the case of AAATATGCAA, the switch fluorescence ratio is reported as 1.08.
In the case of TCCTTGGAAG, the switch fluorescence ratio is reported as 0.996.
Work on CACATTCGG yielded a switch fluorescence ratio of 1.01.
TGGGGTGCC showed a switch fluorescence ratio of 0.987.
Sequence GTTAATTCAT has a switch fluorescence ratio of 0.982.
GCAGTCGCAC showed a switch fluorescence ratio of 0.992.
Work on GATTATCTTC yielded a switch fluorescence ratio of 1.01.
For AGATGAGCAA, the switch fluorescence ratio was 1.07.
TTGCTTCCTG was tested, and the switch fluorescence ratio was 1.05.
In the case of ACTTATTGCA, the switch fluorescence ratio is reported as 1.01.
Work on ATAAAATTGC yielded a switch fluorescence ratio of 1.09.
TTATGCAATT showed a switch fluorescence ratio of 1.18.
Work on GGGTCCCGTT yielded a switch fluorescence ratio of 1.02.
For AGCGGTTGCT, the switch fluorescence ratio was 0.991.
For GCGGTTGGTC, the switch fluorescence ratio was 1.05.
With TATGTTTGCA the switch fluorescence ratio was 0.982.
With CCTGCATCG the switch fluorescence ratio was 1.05.
In the case of CAGGTGTGTC, the switch fluorescence ratio is reported as 1.08.
Sequence TAACTGATAG has a switch fluorescence ratio of 1.01.
GTTTTTGAGA gave a switch fluorescence ratio of 1.
Sequence GCGCCGGGTC has a switch fluorescence ratio of 0.964.
TGAAGCTTTT showed a switch fluorescence ratio of 1.04.
GGGGCGACGG was tested, and the switch fluorescence ratio was 0.952.
CATGTTCCG was tested, and the switch fluorescence ratio was 0.986.
For GTGACAGGGC, the switch fluorescence ratio was 1.06.
TACACGGGCG showed a switch fluorescence ratio of 0.943.
In the case of GGTCTTATTT, the switch fluorescence ratio is reported as 0.983.
GCTAAAAAAG was tested, and the switch fluorescence ratio was 1.01.
For GAGCCAGTCG, the switch fluorescence ratio was 1.04.
TTAAGCAGAG gave a switch fluorescence ratio of 0.972.
ACACCCTGAT gave a switch fluorescence ratio of 1.13.
GTAAAGTACA gave a switch fluorescence ratio of 1.18.
Sequence GGGGGCCCAA has a switch fluorescence ratio of 0.983.
CTGCGGTACT was tested, and the switch fluorescence ratio was 4.04.
Work on GGCGAGCGAT yielded a switch fluorescence ratio of 1.04.
For CACCCGGCTG, the switch fluorescence ratio was 1.33.
CGGAGGGGGC gave a switch fluorescence ratio of 1.04.
GGTCTGCGAT showed a switch fluorescence ratio of 1.19.
In the case of TTCGTATAT, the switch fluorescence ratio is reported as 1.03.
Work on GAGTAAGTAC yielded a switch fluorescence ratio of 1.06.
With CTTGCCACGC the switch fluorescence ratio was 1.08.
For CCGGTATCGA, the switch fluorescence ratio was 1.06.
GGCCCATGGA gave a switch fluorescence ratio of 1.01.
CGTGTATCTT was tested, and the switch fluorescence ratio was 0.936.
GCGTGAAAAC was tested, and the switch fluorescence ratio was 1.02.
Sequence CAAAGGATAA has a switch fluorescence ratio of 1.01.
AATTCTTAGT was tested, and the switch fluorescence ratio was 0.986.
AACAGTACT showed a switch fluorescence ratio of 1.31.
Work on GAACGTTGTT yielded a switch fluorescence ratio of 1.
CTCATCTACT gave a switch fluorescence ratio of 1.06.
Work on GAAGCATTTA yielded a switch fluorescence ratio of 1.19.
GGCAGGACGT gave a switch fluorescence ratio of 1.03.
In the case of CATATGGT, the switch fluorescence ratio is reported as 0.958.
In the case of TACCGCTGAG, the switch fluorescence ratio is reported as 1.13.
For AGTTCGATTA, the switch fluorescence ratio was 1.03.
Sequence ATCAGGCATA has a switch fluorescence ratio of 1.01.
In the case of ACGGCCGTAA, the switch fluorescence ratio is reported as 1.03.
For TAAAACGGTT, the switch fluorescence ratio was 0.947.
With ATATCGGGAA the switch fluorescence ratio was 1.01.
TAGCGTGTCT gave a switch fluorescence ratio of 0.986.
Work on ACCTGTTTGG yielded a switch fluorescence ratio of 0.995.
For GGAAATCGGC, the switch fluorescence ratio was 1.12.
For CAAATTGAGC, the switch fluorescence ratio was 1.05.
TTTTACGGCT showed a switch fluorescence ratio of 0.957.
In the case of GCGTTTCCGA, the switch fluorescence ratio is reported as 1.03.
Sequence GACCCTAGGT has a switch fluorescence ratio of 1.11.
CAGGGTGACC was tested, and the switch fluorescence ratio was 0.998.
In the case of AGAGCACCGG, the switch fluorescence ratio is reported as 1.
GCATACAGTG was tested, and the switch fluorescence ratio was 1.03.
AAACGCACAC gave a switch fluorescence ratio of 2.55.
Sequence GGATGAATCC has a switch fluorescence ratio of 0.966.
Sequence ACGGCCTAGT has a switch fluorescence ratio of 1.03.
With CGCTCTACG the switch fluorescence ratio was 1.17.
In the case of CCTCCTTTTC, the switch fluorescence ratio is reported as 2.67.
Work on TATAATTTTA yielded a switch fluorescence ratio of 0.988.
In the case of TGGCACCCGC, the switch fluorescence ratio is reported as 0.983.
Work on AAGCCTTCGT yielded a switch fluorescence ratio of 1.46.
CGCTTAGTTG gave a switch fluorescence ratio of 1.05.
CCCGGCAGAG gave a switch fluorescence ratio of 1.07.
TATGTCCGGG showed a switch fluorescence ratio of 1.04.
In the case of ATTTACTGTT, the switch fluorescence ratio is reported as 1.06.
AGATGAAGTA gave a switch fluorescence ratio of 1.02.
For ATATGTCTGC, the switch fluorescence ratio was 0.978.
For CAAAACGGCG, the switch fluorescence ratio was 1.07.
TGGTGCTCCT showed a switch fluorescence ratio of 1.05.
TCTGAGCGGG showed a switch fluorescence ratio of 0.98.
For GTGGTCGGTC, the switch fluorescence ratio was 0.986.
Sequence GAGTTTCGT has a switch fluorescence ratio of 1.02.
With GCTAGTCCTG the switch fluorescence ratio was 1.02.
Sequence ATATGACCTA has a switch fluorescence ratio of 1.
Work on CATGTCCCCC yielded a switch fluorescence ratio of 0.998.
TACAGATGCG gave a switch fluorescence ratio of 0.99.
GGTGACGGCG was tested, and the switch fluorescence ratio was 0.999.
For TTTCAGTTAG, the switch fluorescence ratio was 1.02.
TGTCGGAATC showed a switch fluorescence ratio of 2.31.
In the case of TACGTTCCTA, the switch fluorescence ratio is reported as 1.11.
Work on GCACGAACAA yielded a switch fluorescence ratio of 1.37.
With GTCGTCTTG the switch fluorescence ratio was 0.988.
In the case of GCCTGTAGGG, the switch fluorescence ratio is reported as 1.01.
TCTAGACGGG showed a switch fluorescence ratio of 1.01.
For GCTGTGTATT, the switch fluorescence ratio was 0.994.
CGATTCCTGG gave a switch fluorescence ratio of 1.04.
GACATACAAG showed a switch fluorescence ratio of 1.09.
With TTTTAGTTGA the switch fluorescence ratio was 0.974.
TTTGAATTCT was tested, and the switch fluorescence ratio was 1.01.
Work on AAAAAGCTG yielded a switch fluorescence ratio of 0.884.
CGGCTTATTT gave a switch fluorescence ratio of 0.965.
Sequence AGCATGTGTG has a switch fluorescence ratio of 1.05.
CGGGCGTTCA gave a switch fluorescence ratio of 1.01.
AAAAACCGAG showed a switch fluorescence ratio of 1.11.
In the case of TACAGCGTGA, the switch fluorescence ratio is reported as 1.09.
For AATAGTCCTT, the switch fluorescence ratio was 0.949.
TCTCATGTCG was tested, and the switch fluorescence ratio was 1.04.
Work on CAGGCCGCTC yielded a switch fluorescence ratio of 1.08.
With GCACAAAGCG the switch fluorescence ratio was 1.04.
In the case of ACGGGTTCGG, the switch fluorescence ratio is reported as 1.02.
TAGTGGCTTT showed a switch fluorescence ratio of 0.99.
GGATATAAAC gave a switch fluorescence ratio of 1.
AAGATAGCTT gave a switch fluorescence ratio of 1.01.
Work on AAGGGGAGCC yielded a switch fluorescence ratio of 1.01.
GTTAGCAAGT gave a switch fluorescence ratio of 1.02.
CTATAAGAGT was tested, and the switch fluorescence ratio was 1.01.
In the case of TAATTTCATT, the switch fluorescence ratio is reported as 0.996.
Sequence ATCCTTGGTG has a switch fluorescence ratio of 1.3.
TAGGTGCCGG was tested, and the switch fluorescence ratio was 0.988.
TCGGGGT showed a switch fluorescence ratio of 1.02.
Sequence TGAGGCCTAT has a switch fluorescence ratio of 1.03.
Work on AACGCACGAA yielded a switch fluorescence ratio of 1.55.
AGGAGACCGA gave a switch fluorescence ratio of 1.
Sequence CCAGCACGTG has a switch fluorescence ratio of 0.984.
Work on GTAAAAAGTT yielded a switch fluorescence ratio of 0.996.
With ACTGTAGGAT the switch fluorescence ratio was 1.08.
TATGATTGT showed a switch fluorescence ratio of 1.01.
GGGGCGTGAC gave a switch fluorescence ratio of 0.983.
With GTTGTTCGTA the switch fluorescence ratio was 1.05.
For TGCAGCCACC, the switch fluorescence ratio was 1.15.
